The results in this text go back to paper PMC7417631.

Amino acid sequences for entries named in this document (tags omitted). Residues count along the entry.
UniProt P25799, residues 1-431: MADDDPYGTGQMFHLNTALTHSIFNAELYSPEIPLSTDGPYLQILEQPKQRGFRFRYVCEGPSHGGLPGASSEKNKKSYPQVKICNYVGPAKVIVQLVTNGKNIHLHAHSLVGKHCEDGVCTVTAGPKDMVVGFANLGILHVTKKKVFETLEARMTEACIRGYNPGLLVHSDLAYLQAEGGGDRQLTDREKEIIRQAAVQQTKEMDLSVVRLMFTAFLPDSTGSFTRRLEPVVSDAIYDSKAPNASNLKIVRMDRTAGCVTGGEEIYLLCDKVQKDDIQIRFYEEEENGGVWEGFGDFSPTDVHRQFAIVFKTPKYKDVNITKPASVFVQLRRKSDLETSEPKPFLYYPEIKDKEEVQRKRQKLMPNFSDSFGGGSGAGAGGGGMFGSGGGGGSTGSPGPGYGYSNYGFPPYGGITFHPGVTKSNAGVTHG
UniProt Q04207: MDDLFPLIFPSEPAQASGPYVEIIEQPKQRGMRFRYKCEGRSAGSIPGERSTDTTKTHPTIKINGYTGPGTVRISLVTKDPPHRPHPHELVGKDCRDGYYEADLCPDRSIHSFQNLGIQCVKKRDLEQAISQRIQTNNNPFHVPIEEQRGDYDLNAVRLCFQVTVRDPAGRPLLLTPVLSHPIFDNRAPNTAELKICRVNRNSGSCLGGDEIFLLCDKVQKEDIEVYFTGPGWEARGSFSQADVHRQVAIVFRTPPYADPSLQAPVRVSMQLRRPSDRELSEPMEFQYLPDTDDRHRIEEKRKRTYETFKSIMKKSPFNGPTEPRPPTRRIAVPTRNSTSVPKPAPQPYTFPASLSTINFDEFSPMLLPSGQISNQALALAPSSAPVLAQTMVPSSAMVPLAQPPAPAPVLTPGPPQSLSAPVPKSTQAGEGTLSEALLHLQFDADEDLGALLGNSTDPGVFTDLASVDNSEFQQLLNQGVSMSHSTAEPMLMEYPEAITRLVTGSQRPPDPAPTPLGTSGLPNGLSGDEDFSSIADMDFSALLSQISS

No constants are given. Whether binding was seen depends on the method and setting. In cells and extracts the contact can be indirect. Some results given as binding are weak or reduced against the parent protein; the word gives no strength. For part of these data: Sequences can lack the tags named with a protein.

Assay [1] addresses c-Myc-tagged PDLIM7 (wild type) (mouse) (UniProt Q3TJD7). Briefly: co-IP; 293T cells transfected with c-Myc-PDLIM7 and FLAG-p65 or FLAG-p50; RIPA lysate; IP with anti-c-Myc agarose overnight at 4°C, four washes with RIPA; blot anti-FLAG (Figure 2A).
Assay [2] concerns the target T1, c-Myc-tagged PDLIM2 (wild type, expressed without transfected PDLIM7) (mouse) (UniProt Q8R1G6).
T1 sequence: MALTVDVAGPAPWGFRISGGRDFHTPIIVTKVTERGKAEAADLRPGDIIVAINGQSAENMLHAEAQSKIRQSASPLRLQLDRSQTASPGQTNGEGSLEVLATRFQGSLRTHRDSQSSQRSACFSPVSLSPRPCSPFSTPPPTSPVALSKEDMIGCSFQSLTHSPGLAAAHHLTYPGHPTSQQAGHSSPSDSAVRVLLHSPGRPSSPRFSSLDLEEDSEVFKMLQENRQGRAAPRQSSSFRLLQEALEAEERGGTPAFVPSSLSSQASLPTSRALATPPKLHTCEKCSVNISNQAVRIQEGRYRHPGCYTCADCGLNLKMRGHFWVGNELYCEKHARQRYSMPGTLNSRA
Briefly: co-IP; 293T cells transfected with c-Myc-PDLIM2 without or with FLAG-PDLIM7, together with His-p62 or ΔUBA; IP anti-c-Myc, blot anti-His (Figure 6E).

In assay [3] the target is c-Myc-tagged ΔLIM3 PDLIM7 mutant (mouse) (UniProt Q3TJD7). Briefly: co-IP; Supplementary Figure 2D; PDLIM7 ΔLIM3 and p65; format not shown (293T cells and RIPA lysates by the general methods).
Assay [4] deals with T1, c-Myc-tagged PDLIM2 (wild type, expressed without transfected PDLIM7) (mouse). Briefly: co-IP; Supplementary Figures 6A and 6C; PDLIM2 wild type or K0 and p65 in 293T cells, also after PDLIM7-specific siRNA; format and tags not shown.
Assay [5] has the same target. Briefly: co-IP; 293T cells first transfected with control siRNA, then with HA-p62 without or with c-Myc-PDLIM2; IP anti-c-Myc, blot anti-HA (Figure 6H).
Assay [6] has the same target. Briefly: co-IP; 293T cells transfected with a c-Myc-tagged and a His-tagged protein; RIPA lysate; IP anti-c-Myc, blot anti-His (Figures 4B, 4C).
Assay [7] has as its target endogenous PDLIM7 of RAW264.7 cells (mouse (endogenous in RAW264.7)) (UniProt Q3TJD7). The assay is described as follows: co-IP; endogenous proteins; RAW264.7 cell lysates immunoprecipitated with anti-PDLIM7 or rabbit IgG, blot with anti-PDLIM2 antiserum (Figure 4A).
The target of assay [8] is c-Myc-tagged ΔLIM2/3 PDLIM7 mutant (mouse) (UniProt Q3TJD7). Briefly: co-IP; 293T cells transfected with a c-Myc-tagged and a His-tagged protein; RIPA lysate; IP anti-c-Myc, blot anti-His (Figures 4B, 4C).
The target of assay [9] is c-Myc-tagged ΔLIM3 PDLIM7 mutant (mouse) (UniProt Q3TJD7). The description is as above.
In assay [10] the target is T2, c-Myc-tagged ΔPDZ PDLIM7 mutant (mouse) (UniProt Q3TJD7).
T2 sequence: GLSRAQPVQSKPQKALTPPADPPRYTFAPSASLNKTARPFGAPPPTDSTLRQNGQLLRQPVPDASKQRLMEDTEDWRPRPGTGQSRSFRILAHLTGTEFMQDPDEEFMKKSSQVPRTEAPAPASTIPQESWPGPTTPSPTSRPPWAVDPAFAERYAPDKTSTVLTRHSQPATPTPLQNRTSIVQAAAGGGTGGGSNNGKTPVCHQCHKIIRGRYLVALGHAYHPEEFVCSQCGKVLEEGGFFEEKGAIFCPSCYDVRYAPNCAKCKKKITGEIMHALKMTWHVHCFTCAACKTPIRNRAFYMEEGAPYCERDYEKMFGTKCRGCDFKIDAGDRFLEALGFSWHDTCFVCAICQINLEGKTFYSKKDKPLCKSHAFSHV
The description is as above.

The target of assay [11] is c-Myc-tagged PDLIM7 (wild type) (mouse) (UniProt Q3TJD7). Described as above.

Take “FLAG-tagged p50 subunit of NF-κB (from UniProt P25799 1-431)”: the binding result in [1] was “no binding”. Turning to “His-tagged p62/Sqstm1 (from UniProt Q64337-1 1-442)”, in assay [2], the binding entry is “binds weakly”. Consider “FLAG-tagged p65 subunit of NF-κB (from UniProt Q04207 1-549)”, for which the binding entry in [1], in assay [3] and in assay [4] was “binds” each time. For the molecule “HA-tagged p62/Sqstm1 (from UniProt Q64337-1 1-442)”, the binding result in [5] is on record as “binds”. For “His-tagged PDLIM7 (from UniProt Q3TJD7-1 1-457)”, in assay [6], the binding entry is reported as “binds”.

B1: endogenous PDLIM2 of RAW264.7 cells (protein, UniProt Q8R1G6 1-349)
chain: MALTVDVAGPAPWGFRISGGRDFHTPIIVTKVTERGKAEAADLRPGDIIVAINGQSAENMLHAEAQSKIRQSASPLRLQLDRSQTASPGQTNGEGSLEVLATRFQGSLRTHRDSQSSQRSACFSPVSLSPRPCSPFSTPPPTSPVALSKEDMIGCSFQSLTHSPGLAAAHHLTYPGHPTSQQAGHSSPSDSAVRVLLHSPGRPSSPRFSSLDLEEDSEVFKMLQENRQGRAAPRQSSSFRLLQEALEAEERGGTPAFVPSSLSSQASLPTSRALATPPKLHTCEKCSVNISNQAVRIQEGRYRHPGCYTCADCGLNLKMRGHFWVGNELYCEKHARQRYSMPGTLNSRA
On to B1, for which the binding entry in assay [7] is given as “binds”.

B2: His-tagged PDLIM2 (protein, UniProt Q8R1G6 1-349)
chain: MALTVDVAGPAPWGFRISGGRDFHTPIIVTKVTERGKAEAADLRPGDIIVAINGQSAENMLHAEAQSKIRQSASPLRLQLDRSQTASPGQTNGEGSLEVLATRFQGSLRTHRDSQSSQRSACFSPVSLSPRPCSPFSTPPPTSPVALSKEDMIGCSFQSLTHSPGLAAAHHLTYPGHPTSQQAGHSSPSDSAVRVLLHSPGRPSSPRFSSLDLEEDSEVFKMLQENRQGRAAPRQSSSFRLLQEALEAEERGGTPAFVPSSLSSQASLPTSRALATPPKLHTCEKCSVNISNQAVRIQEGRYRHPGCYTCADCGLNLKMRGHFWVGNELYCEKHARQRYSMPGTLNSRA
In the case of B2, the binding entry is reported as “no binding” in [8], “binds” in [9], “binds” in assay [10] and “binds” in [11].
